Drawing on the antibiotic and cytotoxicity screens of Wong et al. (2023), this text covers cytotoxicity call for 40 compounds.

The structures appear in SMILES notation. Some of the results follow.

One assay has as its system HSkMC (human skeletal muscle cells). Nature of the assay: cytotoxicity call (relative viability < 0.9). As to conditions: 10 µM.
For `C[C@H]1CN([C@@H](C)CO)C(=O)c2cccc(NS(C)(=O)=O)c2O[C@H]1CN(C)Cc1ccc(C(=O)Nc2ccccc2N)cc1`, the cytotoxicity call is “inactive”.

As to `CC(C)NC(=O)c1cccc2cccc(Sc3ccccc3)c12`, the cytotoxicity call was “inactive”.

For the compound `COc1ccccc1C(=O)N1CCNCC1`, the cytotoxicity call is “inactive”.

For `C[C@@H]1CN([C@@H](C)CO)C(=O)c2cccc(NC(=O)Nc3ccc(F)cc3)c2O[C@H]1CN(C)Cc1ccc(Oc2ccccc2)cc1`, the cytotoxicity call was “inactive”.

Consider `Cc1csc(S(=O)(=O)N(CC(C)C)c2cc3c(cc2OCc2ccc(C(=O)O)cc2)CCC3)n1`, for which the cytotoxicity call is “inactive”.

Take `C[C@@H]1CCCCO[C@H](CN(C)Cc2ccccc2)[C@H](C)CN([C@H](C)CO)C(=O)c2cc(NC(=O)c3ccccc3)ccc2O1`: the cytotoxicity call was “inactive”.

As for `C[C@@H]1CCCCO[C@@H](CN(C)Cc2ccc3c(c2)OCO3)[C@@H](C)CN([C@@H](C)CO)C(=O)c2cc(NS(=O)(=O)c3ccc(Cl)cc3)ccc2O1`, the cytotoxicity call is “inactive”.

Regarding `C[C@@H]1CN([C@H](C)CO)C(=O)Cc2cc(NS(=O)(=O)c3cn(C)cn3)ccc2O[C@H]1CN(C)CC1CCCCC1`, the cytotoxicity call was “inactive”.

With `COc1ccc(NC(=O)N(C)C[C@H]2Oc3ccc(NC(=O)C4CC4)cc3CC(=O)N([C@@H](C)CO)C[C@@H]2C)cc1`, the cytotoxicity call was “inactive”.

For the compound `CO[C@H]1CN(C)C(=O)c2cc(NC(=O)Nc3cccc(F)c3)ccc2OC[C@@H](C)N(C(=O)Nc2c(C)noc2C)C[C@@H]1C`, the cytotoxicity call was “inactive”.

Consider `CCCN(C)C[C@H]1OCCCC[C@@H](C)Oc2ccc(NS(=O)(=O)c3ccc(Cl)cc3)cc2C(=O)N([C@@H](C)CO)C[C@H]1C`, for which the cytotoxicity call was “inactive”.

For `COC(=O)[C@H]1CCC(=O)[C@H](C(=O)OC)C1`, the cytotoxicity call is “inactive”.

As to `COc1ccc(NC(=O)Nc2ccc3c(c2)[C@@H]2C[C@@H](CC(=O)NCc4ccncc4)O[C@H](CO)[C@@H]2O3)cc1`, the cytotoxicity call was “inactive”.

As to `C[C@H]1CN([C@@H](C)CO)C(=O)c2cccc(NC(=O)c3cnccn3)c2O[C@@H]1CN(C)S(=O)(=O)c1cn(C)cn1`, the cytotoxicity call was “inactive”.

Consider `C[C@@H]1CCCCO[C@@H](CN(C)C(=O)Nc2ccc(F)cc2)[C@H](C)CN([C@H](C)CO)C(=O)c2cc(NC(=O)Nc3cccc4ccccc34)ccc2O1`, for which the cytotoxicity call was “inactive”.

For the compound `COCCNC(=O)C[C@H]1C[C@H]2c3cc(NC(=O)COC)ccc3O[C@H]2[C@@H](CO)O1`, the cytotoxicity call was “inactive”.

With `C[C@@H]1CN([C@@H](C)CO)C(=O)c2cc(NS(=O)(=O)c3ccc(Cl)cc3)ccc2O[C@@H](C)CCCCO[C@H]1CN(C)S(=O)(=O)c1ccc(Cl)cc1`, the cytotoxicity call is “inactive”.

In the case of `C[C@@H]1CN([C@@H](C)CO)C(=O)c2cc(NC(=O)NC3CCCCC3)ccc2O[C@@H](C)CCCCO[C@H]1CN(C)C(=O)NC1CCCCC1`, the cytotoxicity call is “inactive”.

Turning to `Cc1cc(N)c2ccccc2[n+]1CCCCCCCCCC[n+]1c(C)cc(N)c2ccccc21.[Cl-].[Cl-]`, the cytotoxicity call is “inactive”.

With `O=C(C[C@@H]1CC[C@H]2[C@@H](COC[C@@H](O)CN2Cc2cc(F)ccc2F)O1)N[C@H]1CCN(Cc2ccccc2)C1`, the cytotoxicity call was “inactive”.

Regarding `Cc1ccc(S(=O)(=O)Nc2cccc3c2O[C@@H](CN(C)S(=O)(=O)c2ccccc2)[C@H](C)CN([C@H](C)CO)C3=O)cc1`, the cytotoxicity call was “inactive”.

Regarding `COc1ccc(S(=O)(=O)N(C)C[C@H]2Oc3ccc(NC(=O)C4CC4)cc3C(=O)N([C@@H](C)CO)C[C@@H]2C)cc1`, the cytotoxicity call was “inactive”.

`COc1ccccc1-c1ccc2c(c1)O[C@H](CN(C)C(=O)c1cccnc1)[C@H](C)CN([C@@H](C)CO)S2(=O)=O`: the cytotoxicity call is “inactive”.

Consider `COc1ccc(NC(=O)Nc2ccc3c(c2)C(=O)N([C@H](C)CO)C[C@H](C)[C@H](CN(C)S(=O)(=O)c2ccc(C)cc2)OCCCC[C@@H](C)O3)cc1`, for which the cytotoxicity call was “inactive”.

`CC(C)(C)[S@@](=O)N1Cc2cc(C(=O)NCCN3CCCCC3)nc(-c3cccc(-c4cccc(C#N)c4)c3)c2[C@H]1CCO`: the cytotoxicity call is “inactive”.

In the case of `COc1ccc(CC[C@@H](OC(=O)[C@H]2CCCCN2C(=O)Cc2ccccc2)c2cccc(OCC(=O)O)c2)cc1OC`, the cytotoxicity call is “inactive”.

With `COc1ccc(S(=O)(=O)Nc2ccc3c(c2)C(=O)N([C@@H](C)CO)C[C@H](C)[C@@H](CN(C)Cc2ccccc2)OCCCC[C@H](C)O3)cc1`, the cytotoxicity call is “inactive”.

As for `C[C@H]1CN([C@@H](C)CO)C(=O)Cc2cc(NC(=O)C3CC3)ccc2O[C@@H]1CN(C)S(=O)(=O)c1cccs1`, the cytotoxicity call was “inactive”.

The next assay concerns HepG2. The assay is described as follows: cytotoxicity call (relative viability < 0.9). To be noted: 10 µM.
For `O=C(C[C@H]1CC[C@H]2[C@@H](COC[C@@H](O)CN2S(=O)(=O)c2ccc(Cl)cc2)O1)NCCN1CCCC1`, the cytotoxicity call is “inactive”.

For the compound `C[C@@H]1CN([C@@H](C)CO)C(=O)c2cc(NC(=O)CCCN(C)C)ccc2O[C@@H]1CN(C)S(=O)(=O)c1ccccc1`, the cytotoxicity call is “inactive”.

As to `C[C@H](CO)N1C[C@H](C)[C@@H](CN(C)C(=O)Nc2cccc3ccccc23)Oc2ccc(NC(=O)Cc3ccccc3)cc2CC1=O`, the cytotoxicity call is “inactive”.

Take `O=c1ccc(=O)n(CNc2nccs2)[nH]1`: the cytotoxicity call was “inactive”.

As for `CC(=O)OCC(=O)C12N=C(C)OC1CC1C3CCC4=CC(=O)C=CC4(C)C3C(O)CC12C` (stereo not given), the cytotoxicity call was “inactive”.

For the compound `O=C(Nc1cccc2cccnc12)[C@@H]1[C@H](c2cccc(Br)c2)CC(=O)N1C(=O)OCc1ccccc1`, the cytotoxicity call was “inactive”.

On to `C[C@H](CO)N1C[C@H](C)[C@@H](CN(C)Cc2ccc(Cl)c(Cl)c2)Oc2c(NS(=O)(=O)c3ccccc3)cccc2C1=O`, for which the cytotoxicity call is “active”.

As for `C[C@H]1CCCCO[C@H](CN(C)C(=O)Nc2ccc(C(F)(F)F)cc2)[C@@H](C)CN([C@@H](C)CO)C(=O)c2cc(NS(=O)(=O)c3ccc(F)cc3)ccc2O1`, the cytotoxicity call is “active”.

`O=C(C[C@H]1CC[C@H]2[C@@H](COC[C@@H](O)CN2S(=O)(=O)c2cccc(F)c2)O1)NCc1ccncn1`: the cytotoxicity call was “inactive”.

With `Oc1ccc2ccccc2c1`, the cytotoxicity call is “inactive”.

As for `C[C@@H]1CN([C@@H](C)CO)C(=O)c2cc(C#CCN(C)C)cnc2O[C@@H]1CN(C)C(=O)Nc1ccccc1F`, the cytotoxicity call is “inactive”.

For `COc1cccc(NC(=O)N(C)C[C@@H]2OCc3ccccc3-c3c(n(C)c4ccccc34)C(=O)N([C@H](C)CO)C[C@@H]2C)c1`, the cytotoxicity call was “inactive”.

On to `C[C@H]1CN([C@@H](C)CO)C(=O)c2cccc(NS(C)(=O)=O)c2O[C@H]1CN(C)Cc1ccc(C(=O)Nc2ccccc2N)cc1`, for which the cytotoxicity call is “inactive”.

As to `CC(C)NC(=O)c1cccc2cccc(Sc3ccccc3)c12`, the cytotoxicity call is “inactive”.

In the case of `COc1ccccc1C(=O)N1CCNCC1`, the cytotoxicity call was “inactive”.

As to `C[C@@H]1CN([C@@H](C)CO)C(=O)c2cccc(NC(=O)Nc3ccc(F)cc3)c2O[C@H]1CN(C)Cc1ccc(Oc2ccccc2)cc1`, the cytotoxicity call was “inactive”.

Regarding `Cc1csc(S(=O)(=O)N(CC(C)C)c2cc3c(cc2OCc2ccc(C(=O)O)cc2)CCC3)n1`, the cytotoxicity call is “inactive”.

As for `C[C@@H]1CCCCO[C@H](CN(C)Cc2ccccc2)[C@H](C)CN([C@H](C)CO)C(=O)c2cc(NC(=O)c3ccccc3)ccc2O1`, the cytotoxicity call is “inactive”.

In the case of `C[C@@H]1CCCCO[C@@H](CN(C)Cc2ccc3c(c2)OCO3)[C@@H](C)CN([C@@H](C)CO)C(=O)c2cc(NS(=O)(=O)c3ccc(Cl)cc3)ccc2O1`, the cytotoxicity call was “active”.

`C[C@@H]1CN([C@H](C)CO)C(=O)Cc2cc(NS(=O)(=O)c3cn(C)cn3)ccc2O[C@H]1CN(C)CC1CCCCC1`: the cytotoxicity call was “inactive”.

Take `COc1ccc(NC(=O)N(C)C[C@H]2Oc3ccc(NC(=O)C4CC4)cc3CC(=O)N([C@@H](C)CO)C[C@@H]2C)cc1`: the cytotoxicity call is “inactive”.

Take `CO[C@H]1CN(C)C(=O)c2cc(NC(=O)Nc3cccc(F)c3)ccc2OC[C@@H](C)N(C(=O)Nc2c(C)noc2C)C[C@@H]1C`: the cytotoxicity call was “inactive”.

As to `CCCN(C)C[C@H]1OCCCC[C@@H](C)Oc2ccc(NS(=O)(=O)c3ccc(Cl)cc3)cc2C(=O)N([C@@H](C)CO)C[C@H]1C`, the cytotoxicity call is “active”.

As for `COC(=O)[C@H]1CCC(=O)[C@H](C(=O)OC)C1`, the cytotoxicity call is “inactive”.

As to `COc1ccc(NC(=O)Nc2ccc3c(c2)[C@@H]2C[C@@H](CC(=O)NCc4ccncc4)O[C@H](CO)[C@@H]2O3)cc1`, the cytotoxicity call was “inactive”.

On to `C[C@H]1CN([C@@H](C)CO)C(=O)c2cccc(NC(=O)c3cnccn3)c2O[C@@H]1CN(C)S(=O)(=O)c1cn(C)cn1`, for which the cytotoxicity call was “inactive”.

Regarding `C[C@@H]1CCCCO[C@@H](CN(C)C(=O)Nc2ccc(F)cc2)[C@H](C)CN([C@H](C)CO)C(=O)c2cc(NC(=O)Nc3cccc4ccccc34)ccc2O1`, the cytotoxicity call is “inactive”.

As for `COCCNC(=O)C[C@H]1C[C@H]2c3cc(NC(=O)COC)ccc3O[C@H]2[C@@H](CO)O1`, the cytotoxicity call was “inactive”.

On to `C[C@@H]1CN([C@@H](C)CO)C(=O)c2cc(NS(=O)(=O)c3ccc(Cl)cc3)ccc2O[C@@H](C)CCCCO[C@H]1CN(C)S(=O)(=O)c1ccc(Cl)cc1`, for which the cytotoxicity call was “inactive”.

With `C[C@@H]1CN([C@@H](C)CO)C(=O)c2cc(NC(=O)NC3CCCCC3)ccc2O[C@@H](C)CCCCO[C@H]1CN(C)C(=O)NC1CCCCC1`, the cytotoxicity call was “inactive”.

In the case of `Cc1cc(N)c2ccccc2[n+]1CCCCCCCCCC[n+]1c(C)cc(N)c2ccccc21.[Cl-].[Cl-]`, the cytotoxicity call was “active”.

Turning to `O=C(C[C@@H]1CC[C@H]2[C@@H](COC[C@@H](O)CN2Cc2cc(F)ccc2F)O1)N[C@H]1CCN(Cc2ccccc2)C1`, the cytotoxicity call is “inactive”.

For the compound `Cc1ccc(S(=O)(=O)Nc2cccc3c2O[C@@H](CN(C)S(=O)(=O)c2ccccc2)[C@H](C)CN([C@H](C)CO)C3=O)cc1`, the cytotoxicity call was “inactive”.

Turning to `COc1ccc(S(=O)(=O)N(C)C[C@H]2Oc3ccc(NC(=O)C4CC4)cc3C(=O)N([C@@H](C)CO)C[C@@H]2C)cc1`, the cytotoxicity call was “active”.

With `COc1ccccc1-c1ccc2c(c1)O[C@H](CN(C)C(=O)c1cccnc1)[C@H](C)CN([C@@H](C)CO)S2(=O)=O`, the cytotoxicity call is “inactive”.

Regarding `COc1ccc(NC(=O)Nc2ccc3c(c2)C(=O)N([C@H](C)CO)C[C@H](C)[C@H](CN(C)S(=O)(=O)c2ccc(C)cc2)OCCCC[C@@H](C)O3)cc1`, the cytotoxicity call was “inactive”.

Turning to `CC(C)(C)[S@@](=O)N1Cc2cc(C(=O)NCCN3CCCCC3)nc(-c3cccc(-c4cccc(C#N)c4)c3)c2[C@H]1CCO`, the cytotoxicity call was “inactive”.
